# Data from publication PMC4336329 (PLoS ONE, 2015).
# The whole screen tested about 310,000 compounds, of which about 14,000 (4.5%) showed an effect of 50% or more. The effect is printed as a negative number. Some of the results follow.
# Target: human ether-à-go-go-related gene (hERG) potassium channel (human, UniProt Q12809)
# Assay: primary screen, population patch clamp on CHO cells stably expressing hERG
# 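Note: peak tail current of the secondary pulse compared with the same well before compound.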
# human ether-à-go-go-related gene (hERG) potassium channel, sequence (Q12809 whole entry, looked up): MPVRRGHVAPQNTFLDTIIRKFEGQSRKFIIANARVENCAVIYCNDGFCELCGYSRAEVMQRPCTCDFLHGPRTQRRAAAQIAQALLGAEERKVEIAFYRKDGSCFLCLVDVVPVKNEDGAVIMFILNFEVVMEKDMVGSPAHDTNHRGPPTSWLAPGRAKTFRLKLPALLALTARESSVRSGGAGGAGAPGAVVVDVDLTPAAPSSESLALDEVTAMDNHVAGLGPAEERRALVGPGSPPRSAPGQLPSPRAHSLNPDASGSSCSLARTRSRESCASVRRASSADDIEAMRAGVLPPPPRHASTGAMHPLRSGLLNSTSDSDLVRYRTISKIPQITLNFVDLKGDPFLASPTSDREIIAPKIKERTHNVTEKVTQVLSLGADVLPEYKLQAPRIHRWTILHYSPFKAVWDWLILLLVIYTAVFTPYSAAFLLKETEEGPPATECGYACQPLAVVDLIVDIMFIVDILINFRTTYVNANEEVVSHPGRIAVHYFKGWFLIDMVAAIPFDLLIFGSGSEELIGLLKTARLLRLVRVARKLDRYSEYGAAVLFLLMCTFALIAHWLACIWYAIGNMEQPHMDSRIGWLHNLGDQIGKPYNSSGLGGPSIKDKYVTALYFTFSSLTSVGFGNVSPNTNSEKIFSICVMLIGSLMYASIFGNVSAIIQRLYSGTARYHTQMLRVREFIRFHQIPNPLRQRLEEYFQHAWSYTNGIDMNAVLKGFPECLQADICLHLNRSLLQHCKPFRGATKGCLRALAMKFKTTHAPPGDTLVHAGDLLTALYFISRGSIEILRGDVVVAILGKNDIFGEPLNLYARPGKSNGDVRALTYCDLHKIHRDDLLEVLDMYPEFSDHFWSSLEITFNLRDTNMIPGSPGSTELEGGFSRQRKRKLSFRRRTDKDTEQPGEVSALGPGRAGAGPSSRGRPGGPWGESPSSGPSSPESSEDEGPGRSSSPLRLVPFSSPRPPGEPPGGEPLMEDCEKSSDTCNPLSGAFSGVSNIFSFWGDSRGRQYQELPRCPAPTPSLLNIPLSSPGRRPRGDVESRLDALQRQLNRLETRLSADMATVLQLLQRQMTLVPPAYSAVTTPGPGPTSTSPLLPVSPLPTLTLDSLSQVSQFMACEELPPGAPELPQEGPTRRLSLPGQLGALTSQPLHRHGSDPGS
row,Compound,"hERG current change (%, negative = inhibition) at 10uM [%]"
1,CCOC(=O)/C=C/[C@H]1CC(c2ccccc2)(c2ccccc2)CO1,12
2,O=C(CSc1nnc(C2CC2)n1C1CC1)Nc1cccc(Br)c1,-75.1
3,O=C1c2ccccc2C(=O)N1c1ccc(S(=O)(=O)N2CCN(c3ccccc3)CC2)cc1,-0.796
4,CN(/N=C/c1ccco1)C1=NS(=O)(=O)c2ccccc21,4.85
5,Cc1ccc(C(=O)Nc2sc3c(c2C(=O)NCc2ccco2)CCCC3)cc1,8.5
6,N/N=C(\c1ccccc1)c1cc(Br)ccc1N,2.09
7,C1CCN=C(NC23CC4CC(CC(C4)C2)C3)CC1,20.9
8,CCCCOc1ccc(NC(=O)CSCC(=O)OCC)cc1,6.39
9,CCOC(=O)C1CCN(S(=O)(=O)c2ccccc2)CC1,9.46
10,CCOC(=O)c1ccc2nc(C)c(C)nc2c1,-2.88
11,COc1ccc(NC(=O)CO/N=C(\C)c2cccs2)cc1,0.991
12,CC(=O)Nc1ccc(S(=O)(=O)N2CCN(c3ncccn3)CC2)cc1,6.13
13,CCOc1ccc(N2C(=O)CC(NC3CCCCNC3=O)C2=O)cc1 (stereo not shown),-7.82
14,Cc1cccc(NC(=S)NNc2cccc(Cl)c2)c1,6.84
15,Cc1ccc(NC(=O)COC(=O)c2cccnc2Cl)cc1S(=O)(=O)N1CCCCC1,-16.5
16,CCCCN(CC(=O)NCc1ccc(Cl)cc1)S(=O)(=O)c1ccc2c(c1)OCCO2,-5.15
17,Cc1ccc(/C=C/C(=O)NCCCc2ccccc2)cc1,7.58
18,Cc1cc(C)n2cc(CSc3ncccc3C(=O)O)nc2n1,2.34
19,Cl.Nc1ccc2nc(C(F)(F)F)[nH]c2c1,18
20,C=CCNc1ccc(N2C(=O)C3CCC(C)CC3C2=O)cc1[N+](=O)[O-] (stereo not shown),-2.6
21,Cc1ccc(NC(=S)N(CCN(C)C)C(C)c2ccco2)cc1Cl (stereo not shown),-34.1
22,Cc1cccc(CSC2=NCCN2C(=O)c2ccco2)c1,-1.92
23,Cc1ccc(-c2c[n+](CC(=O)Nc3ccc(C)cc3C)c3n2CCC3)cc1.[Cl-],-30.8

row,Compound,"hERG current change (%, negative = inhibition) at 10uM [%]"
1,Cc1ccccc1C(=O)N1CCC(C(=O)NN2C(=O)NC3(CCCCC3)C2=O)CC1,11.9
2,Cc1ccc(SC(CC(=O)c2ccc(C(C)(C)C)cc2)C(=O)O)cc1 (stereo not shown),3.76
3,COc1ccccc1N1CCN(Cc2cccs2)CC1,-9.46
4,CC(C)c1ccc(N(CC(=O)NCc2ccco2)C(=O)CCC(=O)Nc2ccccn2)cc1,1.81
5,CCCC(=O)NC(=S)Nc1cccc(Cl)c1N1CCCCC1,14.1
6,O=C(Nc1ccc(NC(=O)C2CC2)cc1)c1cccs1,-12.8
7,N#Cc1cc(C(=O)c2cc(F)ccc2O)cn(-c2nccs2)c1=O,12
8,COc1ccc2nc3oc(C(=O)N4CCCCC4)cc3cc2c1,-22.6
9,COC(=O)c1ccccc1NC(=O)C1CCN(S(C)(=O)=O)CC1,1.04
10,COc1ccc(N2CCN(C(=O)CN3C(=O)C4CC=CCC4C3=O)CC2)cc1 (stereo not shown),12.3
11,FC(F)(F)c1cnc(Oc2ccccc2-c2nnco2)c(Cl)c1,5.65
12,O=c1[nH]c2c(c(=O)n1C1CCCCC1)CCC2,6.39
13,COC(=O)c1ccc(CN2C(=O)c3ccccc3S2(=O)=O)cc1,-19
14,Cc1ccc(S(=O)(=O)N2CCN(C(=O)CN3CCOCC3)C2C(C)C)cc1 (stereo not shown),-5.14
15,C[C@H](CCC(=O)O)[C@H]1CC[C@H]2[C@@H]3[C@H](O)C[C@@H]4C[C@H](O)CC[C@]4(C)[C@H]3CC[C@]12C,13.8
16,CCOC(=O)CN1CC23C=CC(O2)C(C(=O)Nc2cc(OC)ccc2OC)C3C1=O (stereo not shown),-3.04
17,CN(CCc1ccccn1)c1ccc([N+](=O)[O-])cn1,-1.64
18,Cc1cccc(C(=O)Nc2nnc(S(=O)(=O)N(C)Cc3ccco3)s2)c1,14.3
19,NC(=S)C1COc2ccccc2O1 (stereo not shown),16.9
20,O=C(NCc1cccs1)c1ccc2ccccc2n1,-9.78
21,OCCC1CN(C2CCC2)CCN1Cc1ccc(F)c(F)c1 (stereo not shown),5.12
22,CCOc1ccc(CCNC(=O)CCC(=O)Nc2ccc3nc(N4CCN(C)CC4)cc(C)c3c2)cc1OCC,6.68
23,CSc1ccccc1NC(=O)c1ccco1,-9.54
